# Assay results as given in PubChem BioAssay AID652104 (National Center for Advancing Translational Sciences (NCATS), 2013).
# Among all 410,000 compounds or so, about 7,200 (1.8%) were called active. The shares of active, inactive and inconclusive entries below differ from those in the screen. Calls come from the whole dose curve; as a rule, active = well fitted activation curve with a large enough effect; inconclusive = small, poorly fitted or top-dose-only effect, or another doubt; inactive = no such curve, though single readings can be large or run the other way. Potencies of inconclusive entries are left out as doubtful fits.
# Assay: qHTS of TDP-43 Inhibitors; note: nearly all actives have a fitted effect of over 50% in size
# Settings: TDP-43 expressing yeast growth rescue, BacTiter-Glo, 24 h; series mostly up to 46.1 µM
# Procedure, shortened: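 Yeast expressing TDP-43 (pregrown in raffinose, seeded at OD600=0.02 in galactose medium) exposed to compounds 24 hr at 30 deg C. Growth read by BacTiter-Glo luminescence; rescue of toxicity appears as increased signal.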
# Potency is the fitted concentration of half-maximal effect; tags give direction and shape of the fitted curve.
row,Structure (SMILES),Potency
1,O=c1c([N+](=O)[O-])cccn1Cc1ccc(F)cc1Cl,"inconclusive [activator, single point]"
2,O=C(COC(=O)/C=C/c1ccc(Cl)c(Cl)c1)NC1CC1,active: 10 µM
3,COc1ccc(CNC(=O)C2CCN(C(=O)c3ccc(-c4ccccc4)cc3)CC2)cc1,"inconclusive [activator, partial curve]"
4,NNS(=O)(=O)c1ccc2c(c1)Cc1cc(S(=O)(=O)NN)ccc1-2,inactive
5,COc1ccccc1OCCC(=O)OCC(=O)Nc1ncc(Cl)cc1Cl,"inconclusive [activator, partial curve, poor fit]"
6,COc1ccc(CNC(=O)c2c(Nc3ccccc3C)sc(C(=O)c3ccccc3)c2N)cc1,"inconclusive [activator, partial curve, poor fit]"
7,Cc1ccc(-c2n[nH]c(=S)n2/N=C\c2ccco2)cc1,"inconclusive [activator, single point]"
8,O=C(C1CCC1)N1CCN(c2ccc(C(F)(F)F)cc2[N+](=O)[O-])CC1,inactive
9,Cn1c(SCc2ccc(Br)cc2)nnc1-c1cccs1,active: 14.1 µM
10,C=CCN(C#N)c1nc(OC)nc(N2CCCC2)n1,"inconclusive [activator, partial curve, poor fit]"
11,COc1ccc(N2CCN(C(=S)NC(=O)c3cccs3)CC2)c([N+](=O)[O-])c1,active: 22.4 µM
12,Cc1cccc(NC(=S)N2CCC(c3nc4ccccc4s3)CC2)c1,"inconclusive [activator, single point]"
13,CCc1ccc(CNC(=O)C2CCN(C(=O)N3CC(CC)Oc4ccc(C)cc43)CC2)cc1 (stereo unspecified),"inconclusive [activator, single point]"
14,CCOC(=O)CSc1nnc(Cc2ccc(OC)cc2)n1-c1ccccc1,"inconclusive [activator, partial curve, poor fit]"
15,COc1ccc(NC(=O)c2nc(SC)ncc2Cl)cc1,active: 20 µM
16,CCOC(=O)N1CCN(C(=O)c2cc(COc3cccc(C(F)(F)F)c3)on2)CC1,active: 10 µM
17,CC1Cc2ccccc2N1CC(=O)N(C)c1c(N)n(Cc2ccccc2)c(=O)[nH]c1=O (stereo unspecified),inactive
18,Cc1ccc(Cl)cc1NC(=O)CSc1nc(C)c(C)c(C)c1C#N,"inconclusive [activator, partial curve]"
19,COc1ccc(-c2noc(CSc3nnc(-c4ccc(Cl)cc4)n3C)n2)cc1OC,"inconclusive [activator, single point]"
20,COc1ccc(CCNC(=O)Cn2cc(S(=O)(=O)Cc3cccc(Cl)c3)c3ccccc32)cc1OC,inactive
21,COc1ccc(C(C(=O)Nc2ccc(C(C)C)cc2)N(Cc2ccco2)C(=O)CC2NC(=O)NC2=O)cc1 (stereo unspecified),inactive
22,Nc1ccc(C(=O)OCC(=O)N2CCc3ccccc3C2)cc1[N+](=O)[O-],inactive
23,CCOC(=O)c1cnc2c(C(F)(F)F)cccc2c1Nc1cccc(C(=O)OC)c1,"inconclusive [activator, partial curve]"
24,CCCOc1cc(C)c(S(=O)(=O)NCc2cccs2)cc1C,active: 20 µM

row,Structure (SMILES),Potency
1,Cc1cc(=O)n(-c2ccc(C(=O)O)cc2)[nH]1,"inconclusive [activator, partial curve]"
2,COc1ccc(C(=O)c2cc([N+](=O)[O-])ccc2N2CCOCC2)cc1,inactive
3,CCOc1ccc(NC(=O)CCS(=O)(=O)c2ccc3c(c2)n(C)c(=O)c(=O)n3C)cc1,"inconclusive [activator, partial curve, poor fit]"
4,Cc1ccc2cccc(NC(=O)C(C)(C)Oc3ccc(Br)cc3)c2n1,inactive
5,CCOc1ccc(NC(=O)c2ccccc2SC)cc1,"inconclusive [activator, single point]"
6,COc1ccc(/C(N)=N/OC(=O)c2cccc([N+](=O)[O-])c2C)cc1,active: 7.08 µM
7,Cn1nc(-c2ccc(C(=O)NC3CCCCC3)cc2)c2ccccc2c1=O,"inconclusive [activator, partial curve]"
8,COc1ccc(-c2cn3c(n2)sc2cc(C(=O)Nc4cc(Cl)ccc4C)ccc23)cc1,inactive
9,CC1CCN(c2ncnc3c2cnn3Cc2ccc(Cl)cc2)CC1,"inconclusive [activator, single point]"
10,c1ccc(-c2nn3nnnc3c3ccccc23)cc1,"inconclusive [activator, single point]"
11,CCCCc1nc2cc(C(=O)N3CCCC(COC)C3)ccc2o1 (stereo unspecified),"inconclusive [activator, partial curve]"
12,O=C(N1CCC(n2nc(-c3ccccc3)oc2=O)CC1)C1(c2ccc(Cl)cc2)CC1,active: 22.4 µM
13,CN(C)N1C(=O)CC(N2CCCCC2)C1=O (stereo unspecified),"inconclusive [activator, full curve, poor fit]"
14,O=C1[C@H]2[C@@H](c3ccccc3)N[C@]3(CCCN(Cc4ccc(Cl)cc4)C3=O)[C@H]2C(=O)N1Cc1ccccc1,"inconclusive [activator, single point]"
15,COc1cc(C(=O)/C=C/Nc2ccc(NC(C)=O)cc2)cc(OC)c1OC,"inconclusive [activator, single point]"
16,Cn1cnc2c(=O)oc3ccc(S(=O)(=O)N4CCN(c5cccc(Cl)c5)CC4)cc3c21,inactive
17,COC(=O)[C@H](Cc1ccc(O)cc1)NC(=O)Cn1cnc2c(OCc3ccccc3)ncnc21,inactive
18,O=C(NCCc1csc(-c2ccc(F)cc2)n1)c1ccc(Br)o1,"inconclusive [activator, single point]"
19,COc1cccc(C(NC(C)=O)c2nc(/C=C/c3ccccc3)cs2)c1 (stereo unspecified),"inconclusive [activator, single point]"
20,COc1ccc(NC(=O)c2cccc3c(-c4cccnc4)coc23)cc1,active: 10 µM
21,Cc1cccc(/C(N)=N/OC(=O)Cc2cccs2)c1,"inconclusive [activator, partial curve]"
22,CCc1noc(C)c1C(=O)Nc1cc(Cl)ccc1N1CCCC1,"inconclusive [activator, full curve, poor fit]"
23,O=C(c1ccc(=O)oc1)N1CCOCC1,inactive
24,CCc1ccc(NC(=S)N(Cc2ccccc2)Cc2ccccn2)cc1,"inconclusive [activator, single point]"

row,Structure (SMILES),Potency
1,CCCCN(C(C)=O)c1c(CC)nc2ccc(C(=O)Nc3cccc(OCC(=O)N(C)C)c3)cn12,inactive
2,CCc1ccc(N(CC(=O)NC(C)(C)C)C(=O)CCC(=O)Nc2ccccn2)cc1,inactive
3,Cc1cccc(NC(=S)N=Nc2c(O)n(C)c3ccc(S(=O)(=O)N4CCOCC4)cc23)c1,"inconclusive [activator, partial curve, poor fit]"
4,Cc1ccc(COc2ccc(/C=N/NC(=O)CN3CCCCC3)cc2)cc1,"inconclusive [activator, single point]"
5,Cc1cc(OC(=O)c2ccc(OC(C)C)cc2)c([N+](=O)[O-])c(=O)[nH]1,active: 22.4 µM
6,CC1CCCCN1S(=O)(=O)c1ccc(N(C(=O)c2cnccn2)C(C(=O)NC2CCCC2)c2cccs2)cc1 (stereo unspecified),"inconclusive [activator, single point]"
7,Cc1ccc(S(=O)(=O)N(CC(=O)NCC2CCCO2)Cc2cccc(C)c2)cc1 (stereo unspecified),"inconclusive [activator, partial curve]"
8,CSc1ccc(C2Nc3ccccc3-c3cc(C)nn32)cc1 (stereo unspecified),active: 17.8 µM
9,Cc1ccc(S(=O)(=O)N2[C@H](CC(=O)c3cccc4ccccc34)OC[C@@H]2C(C)C)cc1,inactive
10,COC(=O)c1cc2occc2n1Cc1nc(-c2ccc(C)cc2)oc1C,inactive
11,CCOC(=O)c1cc(-c2cccc(O)c2)oc1C,"inconclusive [activator, partial curve]"
12,COCCOC(=O)C1=C(C)N(c2ccccc2)C(=S)NC1c1ccccc1C(F)(F)F (stereo unspecified),"inconclusive [activator, single point]"
13,Cc1ccc(Nc2nc3ccccc3c3nncn23)cc1C,"inconclusive [activator, single point]"
14,COc1ccc2nc(NC(=O)CSCc3c(C)noc3C)sc2c1,"inconclusive [activator, partial curve]"
15,Cc1cc(C(=O)NC2CC(C)(C)Cc3c2cnn3-c2ccc(F)cc2)nn1C (stereo unspecified),"inconclusive [activator, single point]"
16,CC(=O)N1CCCc2cc(S(=O)(=O)N(C)CC(=O)Nc3ccc(Cl)cc3C)ccc21,inactive
17,COc1ccc2cc(C3CC(c4cccs4)=NN3S(C)(=O)=O)c(Cl)nc2c1 (stereo unspecified),"inconclusive [activator, single point]"
18,COc1ccc(-c2cc3nc(-c4ccccc4)cc(N4CCN(C(C)=O)CC4)n3n2)cc1,"inconclusive [activator, partial curve]"
19,Nc1ccccc1N=c1ssnc1Cl,"inconclusive [activator, single point]"
20,O=C(c1ccc(Br)o1)N1CC=C(c2ccccc2)CC1,"inconclusive [activator, single point]"
21,COc1cccc2sc(N(Cc3cccnc3)C(=O)C3COc4ccccc4O3)nc12 (stereo unspecified),inactive
22,Cc1cccc(-n2nnnc2S(C)(=O)=O)c1,active: 17.8 µM
23,CCOc1ccc(Cl)cc1-c1cc(C(=O)NCc2ccccc2OC)[nH]n1,active: 17.8 µM
